Data taken from PubChem BioAssay (NCI).
Where “and” joins values, the source holds several entries; their conditions need not be identical. Equal entries are not always repeated.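 Test compounds were applied to cells in 96-well plates for 48 hours at 5 doses. At the GI50, growth is halved. TGI: concentration producing complete growth inhibition.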

Test system: NCI-H322M lung
Assay: NCI anticancer screen, dose series, 48 h

Structure (SMILES)	TGI	GI50 [µM]
COc1cc2oc(-c3ccc(O)cc3)cc(=O)c2c(OC)c1O	> 100 µM	–
C/C(CC(=O)Nc1ccc([N+](=O)[O-])cc1)=N\Nc1ccc([N+](=O)[O-])cc1[N+](=O)[O-]	> 100 µM	–
CCCCCCn1c2c(c3c(O)cccc31)C(=O)c1ccccc1-2	33.9 µM	18
COc1ccc(/C=C/C(=O)c2ccccc2)cc1OC	27.4 µM and 37.2 µM	18.9
CCC1OC(=O)CC(O)C(C)C(OC2OC(C)CC(N(C)C)C2O)C(CC=O)CC(C)C(=O)/C=C/C2(C)OC2C1C (stereo not given)	> 100 µM	–
O=c1cc(NNc2cccc(F)c2)[nH]c(=S)[nH]1	> 100 µM	–
Cc1csc2c(=O)n(COCc3ccccc3)c(=O)[nH]c12	> 100 µM	–
C[C@H]1CCC2C(CN3CCCCC3)C(=O)OC2[C@]2(C)C(=O)CC(N3CCCCC3)C12O (stereo not given in full)	27.5 µM	–
CS(=O)(=O)c1ccc(-c2cnc(NCc3ccco3)n3cnnc23)cc1	> 100 µM	> 100
Cn1c(=O)c(-c2c(Cl)cccc2Cl)cc2cnc(Nc3ccc(I)cc3)nc21	70.1 µM	7.14
O=C1NC(Cc2ccccc2)C(=O)N2CCCC12 (stereo not given)	> 100 µM	–
CC/C(=C(/CC)c1ccc(O)cc1)c1ccc(O)cc1	23.8 µM	9.62
O=P(Nc1cccc(Cl)c1)(Oc1ccccc1)N(CCCl)CCCl (stereo not given)	29.2 µM	–
CCN(CCN(CC)C(=O)NC)C(=O)NC	> 100 µM	–
COc1ccc(/C=C(\C2=NC(=O)CS2)c2nc3ccccc3[nH]2)cc1	> 100 µM	–
CC(O)c1ccc(C(O)/C(=N\NC(=O)c2ccncc2)c2nc3ccc([N+](=O)[O-])cc3[nH]c2=O)cc1 (stereo not given)	> 100 µM	–
Cc1cc(N)c2cc(NC(=O)Nc3ccc4nc(C)cc(N)c4c3)ccc2n1	> 100 µM	–
COc1cc(C(=O)N(C(=O)N2CCCCC2)c2ccccc2)cc(OC)c1OC	> 100 µM	–
COC(=O)CC1NC(=O)C1C(C)(OC)OC (stereo not given)	> 100 µM	–
COC(=O)c1cc2c(nc1C)-c1ccccc1OS2(=O)=O	> 100 µM	–
Clc1ccc(Nc2nnc(CNc3ccc(-c4nnc(Nc5ccc(Cl)cc5)o4)cc3)o2)cc1	> 76.9 µM	–

Structure (SMILES)	TGI	GI50 [µM]
Cc1cc2nc3c4cc([N+](=O)[O-])ccc4n(CCN(C)C)c3nc2cc1C	6.09 µM	0.487
COc1cc(=O)oc(/C=C/CO)c1C	> 100 µM	–
CC(=O)Nc1ccc(Cc2ccc3[nH]c(=O)cc(C)c3c2)cc1	> 100 µM	–
C=C1CCC2(C(C)=O)COC1(C)O2 (stereo not given)	> 100 µM	–
COc1ccccc1[C@@H]1CCC2CC[C@@H](c3ccccc3OC)[N+]21Cc1ccccc1 (stereo not given in full)	6.74 µM	–
C=CNC(=S)n1nc(-c2ccccc2NC(=O)C(F)(F)F)c(=O)n(C(=S)NC=C)c1=S	> 100 µM	–
O=[P+](O)c1cccnc1	> 100 µM	–
COc1cc([C@@H]2c3cc4c(cc3[C@@H](NC(=O)c3ccc(OC(C)=O)cc3)C3COC(=O)[C@@H]32)OCO4)cc(OC)c1O (stereo not given in full)	> 100 µM	–
COC(=O)[C@@H](NC(=O)c1ccc(CNC(=O)/C(C)=C/c2ccccc2)cc1)C(C)C	> 100 µM	–
CN(C)C=Nc1c2c(nc3ccccc13)CCCC2	> 100 µM	–
CN(C)CCOc1ccc2[nH]c(C(=O)N3CC(CCl)c4ccc(N)cc43)cc2c1 (stereo not given)	3.62 µM	–
CC(C)(/C=N/O)/[N+]([O-])=C/c1ccccc1	> 100 µM	–
CN(CC1NCCCC1O)C12CC3CC(CC(C3)C1)C2 (stereo not given)	> 100 µM	–
O=C1c2ccccc2-c2ccccc2C1(Cl)Cl	2.63 µM	1.32
O=C1C=CC(=O)[C@H]2C3C=CC(C4C3C3(Cl)C(Cl)=C(Cl)[C@]4(Cl)C3(Cl)Cl)[C@@H]12 (stereo not given in full)	27.3 µM	–
ClCc1ccc(-c2ccc(Cn3cnc4c(Cl)ncnc43)cc2)cc1	4.72 µM	1.99
C=CCCCC(O)c1ccc(C(O)c2cnc3ccccc3c2)o1 (stereo not given)	76.4 µM	25.7
CC1(C)OC2[C@@H](CO[C@@]3([C@H]4OC(C)(C)O[C@@H]4CO)OC(C)(C)O[C@@H]23)O1 (stereo not given in full)	> 100 µM	–
CC(=O)OC12OC(C)(C3C(=O)N(c4ccccc4)C(=O)C31)N(c1ccccc1)C2=O (stereo not given)	> 100 µM	–
O=C1C(=Cc2ccc([N+](=O)[O-])o2)C(=O)N(CCc2ccccc2)S(=O)(=O)N1CCc1ccccc1	> 100 µM	–
